T1: human OX40 on cells (human, UniProt P43489 29-277)
T1 sequence (looked up): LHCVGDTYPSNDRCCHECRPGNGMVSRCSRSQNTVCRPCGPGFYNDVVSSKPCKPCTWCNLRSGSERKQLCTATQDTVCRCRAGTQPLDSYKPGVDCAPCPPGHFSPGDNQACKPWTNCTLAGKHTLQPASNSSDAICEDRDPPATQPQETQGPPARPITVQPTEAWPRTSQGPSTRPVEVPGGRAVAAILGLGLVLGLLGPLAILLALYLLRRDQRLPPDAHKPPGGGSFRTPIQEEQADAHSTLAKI


Assays:
human OX40 on cells = target: T1, human OX40 on cells; assay: cell-based or functional assay
chiOX40R HHRH-Fc [1] = target: T2, chiOX40R HHRH-Fc (human/rat chimera; human); assay: SPR, response units compared
T2 construct: also called chiOX40R-Fc HHRH; chiOX40R OX40 HHRH-Fc
Method: (§1) A second injection was then performed using HBS-EP buffer for 3 min followed by 5 min of dissociation. Regeneration between the injections was done using glycine pH1.5 buffer for 1 min (FIG. 21 and table 23).

chiOX40R HHRH-Fc [2] = target: T2, chiOX40R HHRH-Fc; assay: SPR, chimera immobilised (3000 RU), fragment injected at 200 nM
Method: as §1

T2 sequence (chain, as listed by the source): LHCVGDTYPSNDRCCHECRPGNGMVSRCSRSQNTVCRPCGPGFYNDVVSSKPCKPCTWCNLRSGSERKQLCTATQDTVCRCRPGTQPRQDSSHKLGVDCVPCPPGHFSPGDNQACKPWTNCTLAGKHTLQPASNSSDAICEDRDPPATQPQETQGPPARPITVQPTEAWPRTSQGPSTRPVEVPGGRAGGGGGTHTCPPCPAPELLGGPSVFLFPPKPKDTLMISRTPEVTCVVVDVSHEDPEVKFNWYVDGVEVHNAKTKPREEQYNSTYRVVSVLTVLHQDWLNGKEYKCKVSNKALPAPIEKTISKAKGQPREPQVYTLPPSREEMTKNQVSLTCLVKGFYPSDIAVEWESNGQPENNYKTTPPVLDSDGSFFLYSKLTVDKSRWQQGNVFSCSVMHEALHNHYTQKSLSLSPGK

% donor responder (>2), SEB assay, IL-2 release (human OX40 on cells) | Mean, normalized IL-2 release, SEB assay (human OX40 on cells) | fold better binding than Fc-7H11 Fab/2H6 scFv (chiOX40R HHRH-Fc [1]) | response units (chiOX40R HHRH-Fc [2]) | Binder
91% | 12.4 | – | – | 9B12_hzG3v9 (bispecific antibody, human IgG1, kappa) heavy: QVQLQESGPGLVKPSQTLSLTCAVYGGSFSSGYWNWIRKHPGKGLEYIGYISYNGITYHNPSLKSRITINRDTSKNQYSLQLNSVTPEDTAVYYCARYKYDYDGGHAMDYWGQGTLVTVSSASTKGPSVFPLAPSSKSTSGGTAALGCLVKDYFPEPVTVSWNSGALTSGVHTFPAVLQSSGLYSLSSVVTVPSSSLGTQTYICNVNHKPSNTKVDKKV[sequence of human IgG1 Fc with changes omitted]GGGGTEVQLLESGGGEVQPGGSLRLSCAASGFTFSDAFMYWVRQAPGKEREWVSSISNRGLKTAYAESVKGRFTISRDNAKNTLYLQMSSLRAEDTAVYYCVEGDWNLGPRGQGTLVTVKP light: DIQMTQSPSSLSASVGDRVTITCRASQDISNYLNWYQQKPGKAPKLLIYYTSKLHSGVPSRFSGSGSGTDYTLTISSLQPEDFATYYCQQGSALPWTFGQGTKVEIKRTVAAPSVFIFPPSDEQLKSGTASVVCLLNNFYPREAKVQWKVDNALQSGNSQESVTEQDSKDSTYSLSSTLTLSKADYEKHKVYACEVTHQGLSSPVTKSFNRGEC
– | – | 2 fold | 870 RU | Fc-7H11 Fab/7H11 Fab (other, N-terminal Fabs removed by digestion near the hinge; also called purified digestion product of Tetra-17) heavy: [sequence of human IgG1 Fc with changes omitted]GGGGTQVQLVQSGAEVKKPGASVKVSCKASGYTFTRYYMHWVRQAPGQGLEWMGWIYPGEGSTKYAQKFQGRVTMTRDTSISTAYMELSRLRSDDTAVYYCAREYGNYDYWGQGTLVTVSSASTKGPSVFPLAPSSKSTSGGTAALGCLVKDYFPEPVTVSWNSGALTSGVHTFPAVLQSSGLYSLSSVVTVPSSSLGTQTYICNVNHKPSNTKVDKKVEPKSC light: DIVMTQSPDSLAVSLGERATINCKSSQSLLNSGNQKNYLAWYQQKPGQPPKLLIYGASTRESGVPDRFSGSGSGTDFTLTISSLQAEDVAVYYCQNDHSYPYTFGQGTKLEIKRTVAAPSVFIFPPSDEQLKSGTASVVCLLNNFYPREAKVQWKVDNALQSGNSQESVTEQDSKDSTYSLSSTLTLSKADYEKHKVYACEVTHQGLSSPVTKSFNRGEC

From patent publication US20200347143A1 (GLENMARK PHARMACEUTICALS S A, published 2020)
